According to the supplement of paper PMC7125110:
± gives the standard error. This sample is rich in variants without activity.

B1: glmS ribozyme (parent)
chain: AUAAAAGCGCCAGAACUACAGAAAUGUAGUUGACGAGGAGGAGGUUUAUCGAAUUUUCGGCGGAUGCCUCCAAA

Variants of: B1
Test: self-cleavage kobs at 2500 uM GlcN6P; higher = faster cleavage; RNA array
Conditions: with glucosamine-6-phosphate
Outline: (§1)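 On sequenced MiSeq chips, barcoded ribozyme variants were made in situ by E. coli RNA polymerase and followed at 37 °C through a hybridised Cy3 probe. Glucosamine-6-phosphate was flowed in at 40 μM to 10 mM in HEPES/KCl/Mg(OAc)2 buffer. Exponential fits to normalised per-tile medians gave kobs, and weighted Michaelis–Menten fits gave kcat and KM.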

Variant | self-cleavage kobs at 2500 uM GlcN6P [s⁻¹]
AUAAAAGCGCCUCAACUACAGAAAUGUAGUUGACGAGGAGGAGGUUUAUCGAACUUUCGGCGGAUGCCUCCAAA | < 1e-05
AUAAAAGCGCCUUAACUACAGAAAUGUAGUUGGCGAGGUGGAGGUUUUUCGAAUUUUCGGCGGAUGCCUCCAAA | < 1e-05
AUAAAAGCGCCUGAACUACAGAAAUGUAGUUGACCAGGAGGAGGUAUAUCGAAUUUACGGCGGAUGCCUACAAA | < 1e-05
AUAAAAGCGCCUGAACUACAGAAAUGUAGUUGACGAGGAGCAGGUGUAUCGAAUUUUCGGCGGAUGCAUCCAAA | < 1e-05
AUAAAAGCGCCUGAACUACAGAAAUGUAGUUGACGAGGAGGAAGUUUAUCGAAUUUUCGUCGGAUGCCUCCAAA | < 1e-05
AUAAAAGCGCCUGAACUACAGAAAUGUAGUUGACGAGGAGGACGUUUAUCGCAUUUUCUGCGGAUGGCUCCAAA | < 1e-05
AUAAAAGCGCCUGAACUACAGAAAUGUAGUCGACGAGGAGGAGUUUUAUCGAAUUUUCGGCGGAUGACUCCAAA | 0.00303 ± 0.001
AUAAAAGCGCCUGAACUACAGAAAUGUAGUUGACGAGGAGGAGGGUUAUCGAAUUUUCGGUGGAUGCCUCCAAA | < 1e-05
AUAAAAGCGCCUGAACUACAGAAAUGUAGUUGACGAGGAGGAGGUGUAUCGAAUUUUCGGUGGAUGCCUCGAAA | < 1e-05
AUAAAAGCGCCAAAACUACAGAAAUGUAGUUGACGAGGAGAAGGUUUAUCGAAUUUUCGGCGGAUGCCUCCAAA | 3.77e-05 ± 1.2e-05
AUAAAAGCGCCAAAACUACAGAAAUGUAGUUGACGAGGAGGAGUAUUAUCGAAUUUACGGCGGAUGCCCCCAAA | < 1e-05
AUAAAAGCGCCAAAACUACAGAAAUGUAGUUGACGAGGAGGAGGUUAAUCGAAUUUUCGGCGGAUACCUCCAAA | 0.000103 ± 2.2e-05
AUAAAAGCGCCACAACUACAGAAAUGUAGUUGCCGGCGAGGAGAUUUAUCGAAUUUUCGGCGGAUGGCUCCAAA | < 1e-05
AUAAAAGCGCCACAACUACAGAAAUGUAGUUGUCGAGGAGGAGGUUUAUCGAAUUUUCGGCGGACGCCUUCAAA | < 1e-05
AUAAAAGCGCCACAACUACAGAAAUGUAGUUGACGAGGAGGAGGUUUAUUGAACUUUCGGCGGAUGCCUCCAAA | < 1e-05
AUAAAAGCGCCACAACUACAGAAAUGUAGUUGACGAGGAGGAGGUUUAUCGAAUUUUGAGCGGAUGCCUCCAAA | < 1e-05
AUAAAAGCGCCACAACUACAGAAAUGUAGUUGACGAGAAGGCGGUUUAUCGAAUUUUCGGCGAAUGCCUUCAAA | < 1e-05
AUAAAAGCGCCAUGACUACAGAAAUGUAGUUGACGGGGAGGAGGUUUAUCGAAUAUUCGGCGGAUGCCUCCAAA | < 1e-05
AUAAAAGCGCCAUGACUACAGAAAUGUAGUUGACGAGGAGGAGGUUUAUAGAAUUUUCGGCGGAUGCCUCCAAA | < 1e-05
AUAAAAGCGCCAUAACUACAGAACUGUAGUUGACGAGGAGGAGGUUUAUCGAAUUUUCCGUGGAUGCCUCCAAA | < 1e-05
AUAAAAGCGCCAUAACUACAGAAAUGUAGUUGACGAGGUGGAGGUUUAUCGAAUUAUCGGCGGAUGCCUCCAAA | 0.000101 ± 2e-05
AUAAAAGCGCCAUAACUACAGAAAUGUAGUUGACGAGGAGGAGGUUUUUUGAAUUUUCGGCGGGUGCCUUCAAA | < 1e-05

Variant | self-cleavage kobs at 2500 uM GlcN6P [s⁻¹]
AUAAAAGCGCCAUAACUACAGAAAUGUAGUUGACGAGGAGGAGGUUUAUCGAGUUUUCGGCGGAUGCGUCCAAA | 4.16e-05 ± 1.5e-05
AUAAAAGCGCCAUAACUACAGAAAUGUAGUUGAUGAGGAGUAGGUUUAUCGAGUUUUGGGCGGAUGCCUCCAAA | < 1e-05
AUAAAAGCGCCAUAACUACAGAAAUGUAGUUGACGAAGAGGAGGUUUAUCGAACUUACGGCGGGUGCCUCCAAA | < 1e-05
AUAAAAGCGCCAUAACUACAGAAAUGUAGUUGACGAGGAGGAGCUUUAUCAGAUUUUCGGCGGAUGCCUCCAAA | < 1e-05
AUAAAAGCGCCAGCACUACAGAAAUGUAGUUGCCGAGGAAGAUGUUUAUCGAUUUUUCGGCGGAUGCCUCCAAA | < 1e-05
AUAAAAGCGCCAGCAGUACAGAAAUGUAGUUUACGAGGAGGAGGUUUAUCGAAUUUCCGGCGGAUGCCUCCAAA | < 1e-05
AUAAAAGCGCCAGCACUACAGAAAUGUAUUUGUCGAGGAGGAGGCUUAUCGAAUUUUCGGCGGAUGCCUCUAAA | < 1e-05
AUAAAAGCGCCAGCACUACAGAAAUGUAUUUGACGAGGAGGAGGCUUAUGGAAUUUUCGGCGGCUGCCUUCAAA | < 1e-05
AUAAAAGCGCCAGCACUACAGAAAUGUAGUUGACUAGGAGGAGGUUUAUCGACUUUUCGGCGGAAGCCUCCAAA | < 1e-05
AUAAAAGCGCCAGCACUACAGAAAUGUAGUUGACGAGGAGGAGGUUUAUCGAAUUUUCGUCGGAUGGCUCAAAA | < 1e-05
AUAAAAGCGCCAGCACUACAGAAAUGUAGUUGACGAGGAGGAGGUUUAUCGAAUUUUCGUCGGAUGCCUUCAAA | < 1e-05
AUAAAAGCGCCAGCACUACAGAAAUGUAGUAGACGAGGAGGAGGUUUAUCGAACUUACGGCGGAUGCCUCCAAA | 0.000121 ± 3.3e-05
AUAAAAGCGCCAGCACUACAGAAAUGUAGUCGACGAGGAGGAGGUUAAUCGAAUUUUCUGCGGAUGCCUCCAAA | < 1e-05
AUAAAAGCGCCAGGACUACAGAAAUGUAGUUGACGAGGUGGAGGUUUAUCGAAUUUUCGGCGGAUGCCUCGAAA | 0.00129 ± 0.00041
AUAAAAGCGCCAGGACUACAGAAAUGUAGUUGAUAAGGAGGAGGUUUAUCGAAUUUUCGGCGGAUGCCUCCAAA | < 1e-05
AUAAAAGCGCCAGGACUACAGAAAUGUACUUGACGAGGACGAGGUUUAUCGAAUAUUCGGUGGAUGCCUCUAAA | < 1e-05
AUAAAAGCGCCAGGACUACAGAAAUGUAUUUGACGAGGAUGAGGUUUAUCGAAUUUUCGGCAGAUGCCUGCAAA | < 1e-05
AUAAAAGCGCCAGGACUACAGAAAUGUAGUUGACGAGGACGAGGUUUAUCGUAUUUUCGGCGAAUCCCUCCAAA | < 1e-05
AUAAAAGCGCCAGGACUACAGAAAUGUAGUUGACGAGGAGGAGGUUUAUCGAAUUUUCGGCCCAUGCCUCCAAA | < 1e-05
AUAAAAGCGCCAGGACUACAGAAAUGUAGUUGACGAGGAGGAGGUUUAUCGAAUUGUCGGCGGAUGCCUCUAAA | 0.0458 ± 0.019
AUAAAAGCGCCAGUGCUACAGAAAUGUAGUUGACUAGGAGGAGGCUUAUCGAAUUUUCGGCGGAUGCCUCCAAA | < 1e-05
AUAAAAGCGCCAGUACUACAGAAAUGUAGUUGUCGAGGAGGAGGUUUAUCGAAUUUUCGGCGGAUGCCUCCAAA | 2.81e-05 ± 1e-05

Variant | self-cleavage kobs at 2500 uM GlcN6P [s⁻¹]
AUAAAAGCGCCAGUACUACAGAAAUGUAGUUGACGAGGAGGAGGUUUAUCGAAUUUUCGGAGGAUGCCUCAAAA | < 1e-05
AUAAAAGCGCCAGUACUACAGAAAUGUAUUUGACGAGGAGGAGGUUUUUCGAUUUUUCGGCUGAUGCCUCCAAA | < 1e-05
AUAAAAGCGCCAGUACUACAGAAAUGUAUCUGACGAGGAGGAGGUUUAUCGAAUUUUCGGCGGAUGCCUCCAAA | < 1e-05
AUAAAAGCGCCAGUACUACAGAAAUGUAGUUUACGGGGAGGAGGUUUAUCGAAUUUUCGGCGGAUGCCUCCAAA | < 1e-05
AUAAAAGCGCCAGUACUACAGAAAUGUAGUUGACUAGGAGGAGGUUUAUCGAAUUUUUGGCGGAUGCCUUCAAA | < 1e-05
AUAAAAGCGCCAGUACUACAGAAAUGUAGUUGACGAGGACGAGGUUUAUCGAAUUUUCGGCGGGUGCCUCCAAA | 6.98e-05 ± 1.7e-05
AUAAAAGCGCCAGUACUACAGAAAUGUAGUUGACGAGGAUGAGGUUUAUCGAAUUUUCAGCGGAUGCCUACAAA | < 1e-05
AUAAAAGCGCCAGACCUACAGAAAUGUAGUUGACGAGGAUGAGGUUUAUUGAAUUUUCGGCGGAUGCGUCCAAA | < 1e-05
AUAAAAGCGCCAGACCUACAGAAAUGUAGUUGACGAGGAGGAAGUUUAUCGAAUUUUCGGCUGAUGCCUCCAAA | < 1e-05
AUAAAAGCGCCAGACCUACAGAAAUGUAGUCGACGAGGAGGAGGUUUAUCGAAUUCUCGGUGGAUGCCUCCAAA | < 1e-05
AUAAAAGCGCCAGAGCUACAGAAAUGUAGUUCACGAGGAGUAGGUUUAUCGACUUUUCGGGGGAUGCCUCCAAA | < 1e-05
AUAAAAGCGCCAGAGCUACAGAAAUGUAGUAGAAGAGGAGGAGGUUUAUCGAAUUUUCGGCGGAUGCCUCCAAA | < 1e-05
AUAAAAGCGCCAGAGCUACAGAAAUGUAGUCGACGAGGGGGAGGUUAAUUGAAUUUUCGGCGGAUGCCUCCAAA | < 1e-05
AUAAAAGCGCCAGAGCUACAGAAAUGUAGUUGACGAGGAGGAGGCUUAUCGAAUUUUCGGAGGAUGCGUCAAAA | < 1e-05
AUAAAAGCGCCAGAUCUACAGAAAUGUAGUUGCCGAGGAGGAGGUUUAUCGAAUUUUCGGCGGAUGACUCCAAA | < 1e-05
AUAAAAGCGCCAGAUCUACAGAAAUGUAGUUGACGCGGAGGAGGUUUAUCGAAUUUUCGGAGGAUGCCUCCAAA | < 1e-05
AUAAAAGCGCCAGAUCUACAGAAAUGUAGUUGACGAGGGGGAGGUUUAUCGGAUUUUCGGCGGAUGCCUCCAAA | 0.000162 ± 6.5e-05
AUAAAAGCGCCAGAUCUACAGAAAUGUAGUUGACGAGGAGGAGGUUUAUUGAACUUUCCGCGGAUGCCUCCAAA | < 1e-05
AUAAAAGCGCCAGAUCUACAGAAAUGUAGUUGACUAGGAGGAGGUUUAUCGAAUUUUCGGCGGAUGGCUCCAAA | < 1e-05
AUAAAAGCGCCAGAUCUACAGAAAUGUAGUUGACUAGUAGGAGGUUUAGCGAAAUUUCGGCGGAUGCCUCCAAA | < 1e-05
AUAAAAGCGCCAGAUCUACAGAAAUGUAGUUGACGAAGAGCAGGUUUAUCGAAUUUUCGGCGGAUGCCUCAAAA | < 1e-05

Variants of: B1
Test: self-cleavage kobs at 10000 uM GlcN6P; higher = faster cleavage; RNA array
Conditions: with glucosamine-6-phosphate
Outline: as §1

Variant | self-cleavage kobs at 10000 uM GlcN6P [s⁻¹]
AUAAAAGCGCCUGAACUACAGAAAUGUAGUUGACGAGGAGCAGGUGUAUCGAAUUUUCGGCGGAUGCAUCCAAA | < 1e-05
AUAAAAGCGCCUGAACUACAGAAAUGUAGUUGACGAGGAGGAGGGUUAUCGAAUUUUCGGUGGAUGCCUCCAAA | < 1e-05
AUAAAAGCGCCAAAACUACAGAAAUGUAGUUGACGAGGAGAAGGUUUAUCGAAUUUUCGGCGGAUGCCUCCAAA | 5.25e-05 ± 8.1e-06
AUAAAAGCGCCAGCACUACAGAAAUGUAGUUGACGAGGAGGAGGUUUAUCGAAUUUUCGUCGGAUGGCUCAAAA | < 1e-05
AUAAAAGCGCCAGCACUACAGAAAUGUAGUAGACGAGGAGGAGGUUUAUCGAACUUACGGCGGAUGCCUCCAAA | 9.39e-05 ± 1.9e-05
AUAAAAGCGCCAGUACUACAGAAAUGUAGUUGUCGAGGAGGAGGUUUAUCGAAUUUUCGGCGGAUGCCUCCAAA | 7.63e-05 ± 9.8e-06
AUAAAAGCGCCAGUACUACAGAAAUGUAUUUGACGAGGAGGAGGUUUUUCGAUUUUUCGGCUGAUGCCUCCAAA | < 1e-05
AUAAAAGCGCCAGAGCUACAGAAAUGUAGUAGAAGAGGAGGAGGUUUAUCGAAUUUUCGGCGGAUGCCUCCAAA | < 1e-05
AUAAAAGCGCCAGAUCUACAGAAAUGUAGUUGACGAGGGGGAGGUUUAUCGGAUUUUCGGCGGAUGCCUCCAAA | 0.000571 ± 0.00013
